# Measured values published in patent US20240109963A1 (AB THERAPEUTICS, published 2024).
# B1: Clnd18.2-1A11/3C2FC/CD3(up) TsAb (TriSpecific-V1 structure) (other)
# chain: QVQLVESGGGLVQPGGSLRLSCAASGFTFSNYAMYWVRQAPGKGPEWVSVISGGGGVISYADSVKGRFTISRDNAKNTMYLQMNSLKPEDTAVYYCNAQSAVWWENDYWGQGTQVTVSSGGGGSGGGGSGGGGSQVQLVESGGGLVQAGGSLRLSCAASGLTFSLYDMGWFRQAPGKEREWVATITSSGNTGYAESVKGRFTVSRDNGKKTGYLQTNNLKPEDTALYYCYVPFLGRGYGTLVTVSS[human IgG1 Fc with S354Y T366Y (EU numbers) not written out]
# heavy: EVQLQESGAELARPGASVKMSCKASGYTFTSYTMHWVKQRPGEGLEWIGYINPSSGYTKYNQKFKDKATLTADKSSSTAYMELSSLTSEDSAVYYCARWQDYDVYFDYWGEGTTLTVSSASTKGPSVFPLAPSSKSTSGGTAALGCLVKDYFPEPVTVSWNSGALTSGVHTFPAVLQSSGLYSLSSVVTVPSSSLGTQTYICNVNHKPSNTKVDKKV[human IgG1 Fc with Q347E Y407T (EU numbers) not written out]
# light: QIVLSQSPAILSASPGEKVTMTCRASSSVSYIHWFQQKPGSSPKPWIYATSNLASGVPVRFSGSGSGTSYSLTISRVEAEDAATYYCQQWTSNPPTFGGGTKLEIKRTVAAPSVFIFPPSDEQLKSGTASVVCLLNNFYPREAKVQWKVDNALQSGNSQESVTEQDSKDSTYSLSSTLTLSKADYEKHKVYACEVTHQGLSSPVTKSFNRGEC
# Tests used:
# [1] = molecular target: T1, full-length human Claudin 18.2 on MIA PaCa-2 cells (MIA PaCa-2+ Claudin 18.2) (human, UniProt P56856-2 1-261); test: cell-based or functional assay
# T1 sequence (looked up): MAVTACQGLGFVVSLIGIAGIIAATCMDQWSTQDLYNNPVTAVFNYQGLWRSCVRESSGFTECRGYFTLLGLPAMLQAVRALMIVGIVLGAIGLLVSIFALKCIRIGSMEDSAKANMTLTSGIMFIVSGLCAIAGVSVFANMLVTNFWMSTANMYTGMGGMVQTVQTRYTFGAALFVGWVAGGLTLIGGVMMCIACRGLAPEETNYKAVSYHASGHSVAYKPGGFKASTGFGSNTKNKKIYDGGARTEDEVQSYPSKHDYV
# [2] = molecular target: T2, Claudin 18.2 on CHO cells (CHO+ Claudin 18.2) (UniProt P56856-2 1-261); test: flow cytometry on Claudin 18.2-expressing CHO cells (summary table)
# T2 construct: whole, on cells; also called CHO_18.2
# T2 sequence (looked up): T1 sequence (looked up)
# CD3 on Jurkat cells = molecular target: T3, CD3 on Jurkat cells; test: flow cytometry on Jurkat cells, CD3 binding (T cell) (summary table)
# T3 construct: whole, on cells; also called CD3+ Jurkat cells
# T3 sequence (P07766 23-207, chain 1 of 3): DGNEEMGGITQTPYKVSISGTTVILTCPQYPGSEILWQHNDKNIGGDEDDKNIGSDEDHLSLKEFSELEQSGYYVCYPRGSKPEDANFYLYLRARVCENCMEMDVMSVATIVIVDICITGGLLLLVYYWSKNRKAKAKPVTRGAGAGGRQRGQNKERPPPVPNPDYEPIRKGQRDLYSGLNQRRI
# T3 sequence (P09693 23-182, chain 2 of 3, further chain): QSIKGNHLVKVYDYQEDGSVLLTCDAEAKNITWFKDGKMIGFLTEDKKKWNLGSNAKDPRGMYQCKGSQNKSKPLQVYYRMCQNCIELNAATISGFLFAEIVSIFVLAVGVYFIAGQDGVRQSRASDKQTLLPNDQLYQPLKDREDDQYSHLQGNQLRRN
# T3 sequence (P04234 22-171, chain 3 of 3, further chain): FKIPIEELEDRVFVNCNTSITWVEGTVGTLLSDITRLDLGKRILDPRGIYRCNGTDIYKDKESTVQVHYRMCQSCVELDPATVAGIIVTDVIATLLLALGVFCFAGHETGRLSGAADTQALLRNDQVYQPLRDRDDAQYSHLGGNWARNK
binder,measurement,setting,value
B1,T cell activation EC50 (CD69-positive cells),[1],0.0236 µg/mL
same,EC50,[2],0.015 µg/mL
same,EC50,CD3 on Jurkat cells,37 µg/mL
